These results are taken from PMC6212790.

The list shows a part of the results. At the low end of the ranking the order means little.

This test concerns the target T1, GST-Rok-C97-191 (UniProt O34857).
T1 sequence: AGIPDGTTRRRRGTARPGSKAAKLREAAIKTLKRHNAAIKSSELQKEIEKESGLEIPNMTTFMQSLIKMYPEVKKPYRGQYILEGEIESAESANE
The test can be described thus: protein binding microarray.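 Further: rank score from −0.5 (least bound) to 0.5 (best bound).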 As to conditions: Rok is a gene silencer of Bacillus subtilis; high values mean tight binding; most listed sequences are background and not binding sites; double strand, one strand shown.
As for CATGCCCA, the binding signal was -0.272 E-score. As for AACCTTAC, the figure is 0.0393 E-score; as for ACCCGGGC, -0.383 E-score. As to GCGATTAA, the binding signal was -0.181 E-score. As for GACTCCAA, the figure is -0.211 E-score. Regarding ACAACAAA, the binding signal was 0.0164 E-score. On to GAGTGCGA, for which the binding signal was -0.0836 E-score. For the sequence ACTCGTTC, the binding signal was -0.014 E-score. For AACAACCT, the binding signal is -0.051 E-score. For the sequence CGTCGTTA, the binding signal was found to be 0.116 E-score. Take ACTGTCCC: the binding signal was -0.124 E-score.

For AATTGATA, the binding signal came to 0.269 E-score. TATCTAAA: the binding signal was determined as 0.241 E-score. On to GTGTACAC, for which the binding signal was -0.0467 E-score. For CGCCGTTC, the binding signal was -0.164 E-score. Consider CGAGTTTA, for which the binding signal was -0.00315 E-score. As for GAACTGAA, the figure is -0.135 E-score; as for CACCCATG, -0.343 E-score; as for GGCCTCAA, -0.337 E-score. AGGCGTGC: the binding signal was -0.111 E-score. As for GTACCCCA, the figure is -0.154 E-score; as for ACCTATCG, 0.0496 E-score. Under AATGCTCC stands -0.0736 E-score; under GTGCCATA, 0.0271 E-score. As for CGAGGCGC, the figure is -0.211 E-score; as for AGGGGAAC, -0.131 E-score.

As to GGCAAGAA, the binding signal was -0.058 E-score. Turning to GTCGCTTA, the binding signal is -0.0969 E-score. As to CTTCTTGC, the binding signal was -0.165 E-score.

With CGGAGATA, the binding signal was found to be 0.179 E-score.

AACTCGAG registered a binding signal of 0.112 E-score. In the case of AGGACGCC, the binding signal is -0.229 E-score.

As to GAGTAAGC, the binding signal is -0.0766 E-score. Under TACGCGAA stands 0.134 E-score; under CGCTCCCA, -0.361 E-score. As for AACCCGTC, the figure is -0.139 E-score; as for CTACAATC, 0.12 E-score.

In the case of CACCTTAA, the binding signal was -0.143 E-score.

As to CTCTACCC, the binding signal was -0.106 E-score. Take GGCAACGA: the binding signal was -0.0283 E-score. With AGATGGCT, the binding signal is -0.202 E-score. Under GGACGAAA stands -0.0336 E-score; under CGTTCTAC, 0.304 E-score. For the sequence GTACCGAC, the binding signal is -0.167 E-score. CGCGCAAG showed a binding signal of 0.0462 E-score. Under CACATATA stands 0.264 E-score. AGCTAACA yielded a binding signal of 0.0924 E-score. CGAAGTTA had a binding signal of 0.116 E-score.

For the sequence ATCGGAGC, the binding signal was -0.131 E-score. Consider ATTTACGA, for which the binding signal stood at 0.278 E-score. Under CGTAGGAG stands 0.0119 E-score. Consider ACGTGGCC, for which the binding signal is -0.242 E-score.

As to ACCAAGCC, the binding signal was -0.0592 E-score. As for AGTGGTCG, the figure is -0.0917 E-score; as for GACCCGAC, -0.163 E-score. AAGGTAGA registered a binding signal of 0.246 E-score. Under CAACACAC stands 0.00589 E-score; under ATTCCAGG, 0.00459 E-score. Take CTCACACA: the binding signal was 0.0247 E-score. Regarding GATGTGCC, the binding signal is -0.302 E-score. As for GATACTCA, the figure is 0.122 E-score. Take GAGTCTTA: the binding signal was -0.0226 E-score. Under AGATTACC stands -0.059 E-score. Take ACTTGTCG: the binding signal was -0.122 E-score. Under AATTGTGT stands 0.154 E-score; under CCCACAAC, -0.186 E-score. Under ATTCATCG stands -0.00932 E-score; under CGACAGCC, 0.0151 E-score. Under CTGTAATC stands 0.13 E-score. Consider CACGTCCG, for which the binding signal is -0.355 E-score. Under GTGGACCA stands -0.213 E-score; under CTTCCGAA, -0.00825 E-score; under GGCATAGA, -0.031 E-score.

Sequence GTCGTACA yielded a binding signal of 0.15 E-score. As for AGTTGCGA, the figure is 0.0368 E-score; as for GACTTCTA, 0.111 E-score. TCCGAACA had a binding signal of 0.0669 E-score. As for ATCCTAGA, the figure is -0.156 E-score; as for AGCTGGTC, -0.0483 E-score; as for ACCGCGGA, -0.158 E-score. As for CGAAGACA, the figure is -0.146 E-score; as for AACAGGTG, 0.0862 E-score; as for ACTATCTG, 0.158 E-score.

With CCTTGGGC, the binding signal is -0.109 E-score. Under CCTGTCGA stands -0.126 E-score; under GCAAGGAA, -0.0861 E-score; under TAGCATCA, -0.0379 E-score. GGCTTACA: the binding signal is -0.105 E-score.

Turning to CCCCATCG, the binding signal was -0.208 E-score.

As to ACTCCAAC, the binding signal was -0.227 E-score. ACTTGCTA: the binding signal turned out to be 0.134 E-score.

ACTGAGGA: the binding signal is -0.157 E-score. Take GTTCTCTA: the binding signal is 0.219 E-score.

Regarding CGGCACAA, the binding signal is -0.156 E-score.
